# Laboratory results from article PMC4336329 (PLoS ONE, 2015).
# Screen size: about 310,000 compounds; about 2,200 (0.71%) showed an effect of 50% or more. The effect is printed as a negative number. Some of the results follow.
# Target: human ether-à-go-go-related gene (hERG) potassium channel (human, UniProt Q12809)
# Experiment: primary screen, population patch clamp on CHO cells stably expressing hERG
# Chain of human ether-à-go-go-related gene (hERG) potassium channel (Q12809 whole entry, looked up): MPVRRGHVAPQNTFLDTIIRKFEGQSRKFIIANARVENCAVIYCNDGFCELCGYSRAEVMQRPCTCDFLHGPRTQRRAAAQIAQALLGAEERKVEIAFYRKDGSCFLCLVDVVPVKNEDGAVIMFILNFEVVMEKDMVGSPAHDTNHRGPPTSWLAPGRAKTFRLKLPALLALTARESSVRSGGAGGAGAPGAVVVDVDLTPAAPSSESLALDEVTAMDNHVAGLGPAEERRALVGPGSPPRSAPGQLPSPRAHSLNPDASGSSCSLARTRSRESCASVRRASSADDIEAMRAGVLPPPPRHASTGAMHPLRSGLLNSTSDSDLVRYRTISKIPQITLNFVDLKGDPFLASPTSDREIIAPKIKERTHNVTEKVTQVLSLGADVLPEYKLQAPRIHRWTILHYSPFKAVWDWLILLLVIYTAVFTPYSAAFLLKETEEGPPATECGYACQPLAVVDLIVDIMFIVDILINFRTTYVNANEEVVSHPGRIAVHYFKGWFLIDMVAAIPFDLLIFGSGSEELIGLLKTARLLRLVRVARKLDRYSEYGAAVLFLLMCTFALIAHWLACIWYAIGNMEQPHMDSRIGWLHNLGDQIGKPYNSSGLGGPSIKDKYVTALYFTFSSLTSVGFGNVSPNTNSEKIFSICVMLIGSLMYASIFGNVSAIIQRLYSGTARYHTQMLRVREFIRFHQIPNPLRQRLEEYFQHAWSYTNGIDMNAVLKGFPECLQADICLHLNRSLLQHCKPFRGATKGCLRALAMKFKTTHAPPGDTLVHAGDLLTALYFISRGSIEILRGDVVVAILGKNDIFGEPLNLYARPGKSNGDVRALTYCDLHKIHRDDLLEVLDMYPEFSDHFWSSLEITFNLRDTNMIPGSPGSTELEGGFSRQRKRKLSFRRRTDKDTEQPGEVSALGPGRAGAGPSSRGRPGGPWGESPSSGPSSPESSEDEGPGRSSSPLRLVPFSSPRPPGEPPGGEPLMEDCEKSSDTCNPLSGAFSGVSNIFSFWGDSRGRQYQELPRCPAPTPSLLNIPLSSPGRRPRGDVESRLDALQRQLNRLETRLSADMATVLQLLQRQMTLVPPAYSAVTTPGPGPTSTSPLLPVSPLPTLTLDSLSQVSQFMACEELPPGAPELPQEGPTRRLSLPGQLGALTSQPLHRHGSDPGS
row,Structure (SMILES),"hERG current change (%, negative = inhibition) at 1uM [%]"
1,COc1ccccc1N1CCN(c2nc(C)cc(C)c2C#N)CC1,11.5
2,Cc1ccc(CNC(=O)Cn2nnc3ccccc3c2=O)cc1,8.75
3,COc1cccc(NC(=O)C2(S(=O)(=O)c3ccc(Cl)cc3)CC2)c1,5.39
4,CCOc1cc(C(=O)OCC(=O)c2c(N)n(C)c(=O)n(C)c2=O)cc(OCC)c1OCC,-3.92
5,CC(C)CN(CCCNC(=O)CN1C(=O)COc2ccc(S(=O)(=O)N3CCC(C)CC3)cc21)CC(C)C,9.07
6,CN1CCN(c2nc(Cl)ncc2F)CC1,4.77
7,Cc1cccc(NC(=S)NC2CCCCC2)n1,3.02
8,CSCCC(NS(=O)(=O)c1ccccc1F)C(=O)NCC(c1ccc(F)cc1)N1CCOCC1 (stereo not drawn),7.37
9,O=C(Nc1ccccc1Cl)N1CCN(c2ccc3nnc(-c4ccc(F)cc4)n3n2)CC1,-23.7
10,Cc1ccc(C(=O)NC(=S)NNC(=O)CC#N)cc1,17.7
11,COCCN(C(=O)c1ccccc1)c1nc(-c2ccc(OC)cc2)cs1,11.5
12,O=C(O)c1cccc(Cn2cc(Cl)cn2)c1,11.4
13,Cc1ccccc1N1C(=O)CC(Sc2nnc(-c3ccccc3)o2)C1=O (stereo not drawn),5.38
14,CC12CC3CC(C)(C1)CC(C(=O)Nc1nncs1)(C3)C2,13.7
15,CCN(CC)S(=O)(=O)c1ccc(NC(=O)Cn2c(=O)oc3ccccc32)cc1,13.6
16,COc1ccc(-n2c(C)cc(C(=O)CN3C(=O)C(=O)N(Cc4ccccc4)C3=O)c2C)cc1,10.6
17,CC(C)NS(=O)(=O)c1ccc(OCC(=O)NC2CCCCCC2)cc1,16.3
18,COc1ccc(S(=O)(=O)Nc2cc3c4c(c2)CC(=O)N4CCC3)cc1C,6.54
19,O=C(NCCC(=O)N1CCC2(CC1)NCCc1[nH]cnc12)c1cccc(C(F)(F)F)c1,15
20,O=C(Nc1cccc(Cl)c1)OCc1cn(-c2ccccc2)nn1,-16.2
21,Cc1cccc(NC(=O)c2cccnc2Cl)n1,15.5
22,CCCc1nc2ccccc2c(C(=O)OCC(=O)NCc2ccc3c(c2)OCO3)c1CC,8.88

row,Structure (SMILES),"hERG current change (%, negative = inhibition) at 1uM [%]"
1,O=C(NCC1CCCN1S(=O)(=O)c1cccs1)c1cccc([N+](=O)[O-])c1 (stereo not drawn),1.31
2,CCOc1ccc(C2/C(=C(\O)c3c(C)[nH]c(C(=O)OC)c3C)C(=O)C(=O)N2CCN(C)C)cc1 (stereo not drawn),-2.61
3,O=C(O)C(=O)O.O=C(c1ccco1)N1CCN(Cc2ccc(Br)cc2)CC1,-2.49
4,CCN(C(=O)C1CCCN1S(=O)(=O)c1ccc2c(c1)n(C)c(=O)c(=O)n2C)c1ccccc1 (stereo not drawn),0.439
5,Cc1cc2nc(C)c(=O)n(C)c2cc1C,18.9
6,O=C(Nc1cc(S(=O)(=O)N2CCOCC2)ccc1O)c1ccco1,-3.59
7,COC(=O)COc1cccc2c(=O)n(CC(=O)NCc3ccc(F)cc3)ccc12,5.11
8,Clc1ccc(C=NC23CN4CN(CN(C4)C2)C3)cc1,7.81
9,COC(CNC(=O)C1CCN(S(=O)(=O)c2ccc3nc4c(c(C(=O)O)c3c2)CC(C)CC4)CC1)OC (stereo not drawn),38.6
10,CCOC(=O)Cn1c(CN(C)Cc2ccccc2)nc2c1c(=O)n(C)c(=O)n2C,5.38
11,Cc1cccc(CCNC(=O)Cc2ccc(NC3=NC4CS(=O)(=O)CC4S3)cc2)c1 (stereo not drawn),12.6
12,O=C(NC1CCN(S(=O)(=O)c2ccccc2)CC1)C1CCCCC1,12.1
13,CCOC(=O)CSc1cc(CSc2ccccc2)nc(-c2ccccc2)n1,6.5
14,CCc1ccc2oc(C(=O)Nc3nonc3C)c(C)c2c1,3.34
15,COc1ccc(C(c2sc3nc(C)nn3c2O)N2CCCCC2)cc1 (stereo not drawn),16.6
16,CCO.CCOC(=O)C1=C(C)Nc2sc(C(=O)c3ccc(OC)cc3)c(N)c2C1c1ccc(C(=O)OC)cc1 (stereo not drawn),6.77
17,CCOC(=O)C1CCN(c2c(C(=O)c3ccccc3)cnc3ccc(Cl)cc23)CC1,10.8
18,O=S(=O)(NCCc1csc(-c2cccnc2)n1)c1cccc(F)c1,4.96
19,O=[N+]([O-])c1ccc(N2CCNCC2)cc1NCC1CCCO1 (stereo not drawn),-0.5
20,CCCc1ccc(OCC(O)CN2CCN(CCO)CC2)cc1.Cl (stereo not drawn),8.14
21,Cc1ccc(N=C/C(C(=O)C(F)(F)F)=C(\O)c2ccco2)cc1Cl,-3.55
22,CCCn1c(SCC(=O)NCc2ccccc2)n[nH]c1=O,18.1

row,Structure (SMILES),"hERG current change (%, negative = inhibition) at 1uM [%]"
1,Cc1nc2ccccc2n1CC(=O)OCC(=O)NC1CC1,16.5
2,CC1(c2cccc(Br)c2)NC(=O)N(CC(=O)NC2CCCCC2)C1=O (stereo not drawn),-6.62
3,COC(=O)C(CC(=O)c1ccc(Br)cc1)n1nc(C)cc1C (stereo not drawn),14.3
4,O=C(C[n+]1cccc2ccccc21)c1ccc(Cl)cc1.[Br-],8.92
5,CCn1c(SCC(=O)N/N=C/C=C\c2ccco2)nc2ccccc21,16.4
6,CC1(C)CC(CNCCC(c2ccc(F)cc2)c2ccco2)CCO1 (stereo not drawn),-18.7
7,S=c1sc(SCCOc2ccccc2)nn1-c1ccccc1,-2.64
8,O=C(COc1ccc(Br)cc1CNC1CCCCC1)NCCc1ccccc1,-59
9,O=C(Nn1cnnc1)c1ccc(Br)s1,20.2
10,CC(C)NC(=O)c1onc(CSc2ccccc2)c1C(=O)O,10
11,Fc1ccc(-c2csc3ncnc(N4CCc5ccccc5C4)c23)cc1,6.49
12,NC(=O)COC(=O)c1ccc(S(=O)(=O)NCc2ccco2)cc1,12.5
13,CCc1cc(C(=O)N/N=C/c2ccc(O)cc2)c2ccccc2n1,9.78
14,CCOC(=O)c1c(NC(=O)c2cccc([N+](=O)[O-])c2C(=O)O)sc2c1CCCC2,11.9
15,COc1ccc(NC(=O)C/C(C)=N/NC(=O)c2ccccn2)c(OC)c1,9.32
16,O=C(CN(C(=O)CCC(=O)Nc1ccccn1)c1cccc(F)c1)NCc1ccco1,15.7
17,CCOc1ccc(N2C(=O)CC(Sc3ccccc3C(=O)O)C2=O)c([N+](=O)[O-])c1 (stereo not drawn),2.89
18,Cc1cccc(NC(=O)CSc2nnc(-c3ccccc3Br)o2)c1C,0.594
19,O=C(CSc1ncc(C(=O)O)n1-c1ccc(F)cc1)NCc1ccc2c(c1)OCO2,20.2
20,Cc1ccc(/C=N/Nc2nnc(Cc3ccccc3)c(=O)[nH]2)o1,11.5
21,O=C(Nc1nc2ccccc2s1)c1c(F)cccc1Cl,12.3
22,Cc1cccc(OCC(=O)NNc2c3ccccc3nc3ccccc23)c1,6.8

row,Structure (SMILES),"hERG current change (%, negative = inhibition) at 1uM [%]"
1,Cc1ccc(CN2CCSc3ccc(C(=O)NCc4ccccn4)cc32)cc1,-26.3
2,COc1ccc(NC(=O)Cn2c(=O)n(CC3CCCO3)c(=O)c3cc(OC)c(OC)cc32)c(OC)c1 (stereo not drawn),8.18
3,Cc1ccc(C)c(OCCn2cc(/C=C(\C#N)C(=O)NCC3CCCO3)c3ccccc32)c1 (stereo not drawn),13.4
4,Cc1ccc(-n2c([O-])nc(-[n+]3ccccc3)c2C=O)cc1,12.6
5,Cc1cc(C(C#N)c2ccc(Cl)cc2)c(Cl)cc1NC(=O)c1cc(I)cc(I)c1O (stereo not drawn),13
6,Cc1cccc(C)c1NC(=O)C(C)Sc1n[nH]c(-c2ccncc2)n1 (stereo not drawn),9.74
7,COc1ccccc1OC(C)C(=O)N1CC(=O)Nc2ccccc21 (stereo not drawn),14.4
8,O=c1c(S(=O)(=O)c2ccc(Cl)cc2)cn(Cc2ccccc2F)c2ccc(F)cc12,21.6
9,CC1(C)CC(=O)C2=C(C1)NC(=O)CC2c1ccc(F)cc1 (stereo not drawn),0.687
10,Cc1cccc2cc(C#N)c(SCC(=O)NCC3CCCO3)nc12 (stereo not drawn),1.51
11,CCCCCCCCC(=O)N/N=C/c1cccc(Br)c1,4.03
12,COc1ccc(C)cc1NC(=O)CN1C(=O)COc2ccc(S(=O)(=O)N3CCCCC3)cc21,9.63
13,COc1ccc(OC)c2c(C)cc(NCCN3CCOCC3)nc12,-6.45
14,O=C(CN1C(=O)NC2(CCCC2)C1=O)N1CCN(S(=O)(=O)c2cccc(F)c2)CC1,15.1
15,Cc1nc2ccccc2c2oc(C(=O)NCCCN3CC(C)CC(C)C3)cc12 (stereo not drawn),-6.06
16,CC(C)CNS(=O)(=O)c1cc(C(=O)N2CC(C)OC(C)C2)c(Cl)cc1Cl (stereo not drawn),9.91
17,CC(=O)N1CCC(N(C(=O)Nc2ccc(Cl)cc2)C(C)C)CC1,6.95
18,Cc1ccc(-c2cc(-c3ccc(C)cc3)[n+](-c3ccc(C(=O)[O-])cc3)c(-c3ccc(C)cc3)c2)cc1,8.45
19,C/C(=N\NC(=O)Cc1ccc(F)cc1)c1ccc(O)cc1,4.1
20,O=C(OCC(=O)N1CCOCC1)c1ccc2ccccc2c1O,4.85
21,COc1ccc(NC(=O)c2cc3n(n2)C(C(F)(F)F)CC(c2ccc4c(c2)OCO4)N3)cc1OC (stereo not drawn),8.99
